# Assay results as given in publication PMC4336329 (PLoS ONE, 2015).
# The whole screen tested about 310,000 compounds, of which about 14,000 (4.5%) showed an effect of 50% or more. The effect is printed as a negative number. This is one part of the list.
# Target: human ether-à-go-go-related gene (hERG) potassium channel (human, UniProt Q12809)
# Assay: primary screen, population patch clamp on CHO cells stably expressing hERG
# 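Further: peak tail current of the secondary pulse compared with the same well before compound.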
# human ether-à-go-go-related gene (hERG) potassium channel, sequence (Q12809 whole entry, looked up): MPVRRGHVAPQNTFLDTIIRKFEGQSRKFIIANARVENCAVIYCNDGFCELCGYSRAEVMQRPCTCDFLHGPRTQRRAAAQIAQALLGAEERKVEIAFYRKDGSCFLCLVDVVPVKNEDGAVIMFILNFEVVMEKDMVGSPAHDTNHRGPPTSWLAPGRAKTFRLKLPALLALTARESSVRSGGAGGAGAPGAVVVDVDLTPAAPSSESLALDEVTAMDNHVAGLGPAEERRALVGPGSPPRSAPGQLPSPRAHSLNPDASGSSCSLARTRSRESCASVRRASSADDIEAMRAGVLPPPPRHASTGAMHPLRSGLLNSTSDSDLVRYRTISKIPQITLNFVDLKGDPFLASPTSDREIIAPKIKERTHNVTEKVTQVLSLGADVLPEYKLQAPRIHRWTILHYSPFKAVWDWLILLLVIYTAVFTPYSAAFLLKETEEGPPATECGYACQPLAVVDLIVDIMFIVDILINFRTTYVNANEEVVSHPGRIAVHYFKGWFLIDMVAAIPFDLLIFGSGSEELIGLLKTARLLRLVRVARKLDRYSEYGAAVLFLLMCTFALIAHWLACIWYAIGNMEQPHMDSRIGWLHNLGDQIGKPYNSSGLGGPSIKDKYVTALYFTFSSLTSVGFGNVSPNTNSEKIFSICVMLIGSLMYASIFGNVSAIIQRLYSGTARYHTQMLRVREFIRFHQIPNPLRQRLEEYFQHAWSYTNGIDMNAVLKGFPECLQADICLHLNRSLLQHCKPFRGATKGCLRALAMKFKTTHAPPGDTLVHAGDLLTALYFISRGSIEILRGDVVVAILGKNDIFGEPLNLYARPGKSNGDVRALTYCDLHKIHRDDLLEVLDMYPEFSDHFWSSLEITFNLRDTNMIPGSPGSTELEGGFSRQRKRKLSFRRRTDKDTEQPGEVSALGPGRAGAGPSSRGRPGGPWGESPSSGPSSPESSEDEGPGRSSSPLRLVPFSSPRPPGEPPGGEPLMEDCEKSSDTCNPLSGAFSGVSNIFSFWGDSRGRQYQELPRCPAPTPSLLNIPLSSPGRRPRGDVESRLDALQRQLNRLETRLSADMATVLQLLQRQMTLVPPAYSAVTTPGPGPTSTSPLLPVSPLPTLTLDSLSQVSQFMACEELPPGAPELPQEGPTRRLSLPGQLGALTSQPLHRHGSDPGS
row,SMILES,"hERG current change (%, negative = inhibition) at 10uM"
1,Cc1nn(CC(=O)Nc2ccc(N(C)C)cc2)c(C)c1[N+](=O)[O-],7.71%
2,O=C(NCc1nnc(SCc2ccc(F)cc2)n1-c1ccc(F)cc1)C12CC3CC(CC(C3)C1)C2,-21.7%
3,CCOc1ccc(S(=O)(=O)N2CCCCCC2)cc1,-8.37%
4,O=c1cc(-c2ccccc2)[nH]c2ccccc12,-11.4%
5,O=c1[nH]cccc1-c1nc2ccccc2n1Cc1cccc(Cl)c1,-45.3%
6,COc1ccc(-n2c(=S)[nH]c3cc(C(=O)NC4CCCCC4)ccc3c2=O)c(OC)c1,-1.84%
7,O=C(Cc1ccc(F)cc1)N1CCC(CC2CC(c3cccc(Br)c3)=NO2)(C(=O)NCC2CCCCC2)CC1 (centres unmarked),-8.67%
8,CN(C(=O)Nc1ccc(Cl)cc1Cl)C1CCCC1,-18.6%
9,Cl.Nc1cc(F)ccc1N1CCCCCC1,19.7%
10,[O-][Cl+3]([O-])([O-])[O-].c1ccc(C[n+]2ccccc2)cc1,-3.58%
11,O=C(CN1CCOCC1)N1N=C(c2cccs2)CC1c1cccs1 (centres unmarked),18.9%
12,CCOC(=O)c1c(C)n(C)c2cc(Br)c(C)cc12,23.3%
13,COc1ccc(NC(=O)CCN2C(=O)C3CC=C(Cl)CC3C2=O)cc1 (centres unmarked),0.455%
14,O=S(=O)(Nc1cccc(-n2cnnn2)c1)c1cnc(Cl)c(Cl)c1,2.67%
15,O=C(O)CN1CCN(Cc2ccccc2Cl)C1=O,8.99%
16,c1cncc(Nc2nc(-c3ccncc3)cs2)c1,-15.7%
17,CCOC(=O)c1cc2cc3ccccc3cc2[nH]1,-20.2%
18,CN1CCc2c(C#N)c(N3CCOCC3)nc(NCC3CCCO3)c2C1 (centres unmarked),11.5%
19,CCCNC(=O)Cn1c(=O)oc2ccccc21,-3.03%
20,Cc1ccc(NC(=O)c2ccc3c(c2)OCCO3)cc1S(=O)(=O)Nc1cccc(Cl)c1,-10.5%
21,O=C1COc2ccc(C(=O)COC(=O)/C=C/c3cccc(F)c3)cc2N1,6.4%
22,COc1ccc(Cl)cc1NC(=O)CN(C)C(=O)c1ccc(COc2ccccc2)cc1,13.5%
23,Cc1nc([N+](=O)[O-])c(Sc2nc3ccccc3n2C)n1Cc1ccccc1,-9.78%

row,SMILES,"hERG current change (%, negative = inhibition) at 10uM"
1,CC1CC(C)CN(CCCNS(=O)(=O)c2ccc3c(c2)CCN3C(=O)C2CC2)C1 (centres unmarked),-13.9%
2,CCOC(=O)N1CCN(C(=O)c2ccc(OCC)c(OCC)c2)CC1,-9.83%
3,CC1CCCN(CC(=O)N2c3ccccc3Sc3ccccc32)C1 (centres unmarked),1.98%
4,N#C/C(=C\c1ccc(Cl)cc1)C(=O)Nc1cccnc1,10.6%
5,CCOc1ccc(Nc2nc(N)c([N+](=O)[O-])c(N3CCN(C)CC3)n2)cc1,-48.3%
6,CN(C)c1ccc(/C=N/NC(=O)CN2CCCCC2)cc1Br,-32%
7,Cc1ccc(C(=O)Nc2nnc(-c3ccco3)o2)cc1C,3.36%
8,Cc1cc(C(C)(C)C)c(O)c(C(C)(C)C)c1,17.2%
9,Cn1c(SCc2ccccc2F)nc2cccnc21,-17.4%
10,COc1cc(/C=C/C(=O)O)cc(S(=O)(=O)Nc2ccc3c(c2)CCC3)c1OC,24.5%
11,COCCn1c(-c2ccc(Br)cc2)nc2oc3cc(OC)ccc3c(=O)c2c1=O,-14.7%
12,CCCn1nnc(NC(=O)c2sc3ccccc3c2Cl)n1,-38.6%
13,CC(=O)c1sc(=S)n(Cc2ccccc2)c1C,-41.6%
14,CC(=O)Nc1ccc(NC(=O)/C(=C/c2ccco2)NC(=O)c2ccccc2)cc1,2.2%
15,Cc1cccc(Nc2nnc(SCC(=O)Nc3cccnc3Cl)s2)c1,-18.1%
16,Cc1ccc(/C=N/N2CCN(c3ccccc3)CC2)cc1,4.56%
17,Cc1cc(=O)oc2c3c(ccc12)OC/C3=N/N,16.4%
18,Cc1ccc(C(=O)COC(=O)CNS(=O)(=O)c2ccc(C)cc2)cc1,12.4%
19,Cc1ccc(C2=NN(Cc3nnc(-c4ccccc4)o3)C(=O)SC2)cc1,-7.79%
20,OCC(CO)(CO)NCC(O)CN1c2ccccc2Sc2ccccc21 (centres unmarked),-11.1%
21,O=C(Nc1ccnn1C1CCN(C(=O)c2ccc(C(F)(F)F)cc2)CC1)C1CC1,-47.4%
22,COc1ccc(-c2cnnc(N/N=C/c3ccc(O)c(O)c3)n2)cc1,2.82%
23,Cc1ccc(N(C(=O)Nc2ccccc2)C2=NCC(C)S2)cc1 (centres unmarked),-16.2%

row,SMILES,"hERG current change (%, negative = inhibition) at 10uM"
1,COc1cccc(OCCNS(=O)(=O)c2cccc([N+](=O)[O-])c2)c1,-8.19%
2,COc1ccc(/C=C/C(=O)O)cc1S(=O)(=O)N1CCCc2ccccc21,28.3%
3,CCN(CC)c1ccc(Nc2cc3n(c(=O)n2)CCc2cc(OC)c(OC)cc2-3)cc1,-28.6%
4,CC1Sc2ccc(S(=O)(=O)NCCc3ccc(S(N)(=O)=O)cc3)cc2NC1=O (centres unmarked),14.3%
5,N/C(=N\OC(=O)CCC1CCCC1)c1cccnc1,2.61%
6,Cc1ccccc1C(=O)N1CCCC(N2CCN(Cc3ccc4c(c3)OCO4)CC2)C1 (centres unmarked),-11.7%
7,CC(O)(CS(=O)(=O)Cc1cccc(C(F)(F)F)c1)C(=O)Nc1cccc(C(F)(F)F)c1 (centres unmarked),-10.4%
8,Cn1c(-c2ccccc2)cnc1SCC(=O)N1CCCc2ccccc21,-27.9%
9,COc1ccc(C(=O)c2c[nH]cc2-c2ccccc2)cc1,35.9%
10,CCCc1nnc(NC(=O)C2CCCO2)s1 (centres unmarked),-0.285%
11,Cn1cnc([N+](=O)[O-])c1NC(C)(C)C,1.97%
12,N#CC1=C(N)OC2=C(C(=O)CC(c3ccccc3)C2)C1c1cccnc1 (centres unmarked),-47.3%
13,CN(C)C(=O)CSc1nnc(CCCCCNC(=O)OC(C)(C)C)o1,-2.33%
14,COc1cc(N/C=C2\CC(=O)NC(C)=C2C#N)cc(OC)c1OC,19.6%
15,CC(=O)c1cccc(NC(=O)N2CCCC2C(=O)Nc2cccc(C)c2)c1 (centres unmarked),-6.43%
16,O=C(CN1CCOCC1)Nc1ccc(C2CCCCC2)cc1,-6.95%
17,CCN1CCCC(NC(=O)c2cc([N+](=O)[O-])ccc2OC)C1.Cl.O (centres unmarked),-11.8%
18,Cc1nnc(-c2cnn(C)c2N)n1Cc1ccccc1,-14.1%
19,CCOC(=O)Cc1csc(NC(=S)NC(=O)CC(C)C)n1,5.15%
20,COc1ccc(CCNC(=O)C(=O)NCc2ccccc2C)cc1OC,7.98%
21,COc1ccc(CCN2CC(C(=O)NCCc3ccccc3C(F)(F)F)CCC2=O)cc1 (centres unmarked),-46.6%
22,CC(C)(C)OC(=O)N1CCC(c2c(C(=O)N3CCN(C4CCCCC4)CC3)cnn2-c2ccccc2)CC1,-54.7%
23,O=c1c2ccccc2nc(COc2ccccc2)n1/N=C/c1ccc(O)cc1O,46.1%

row,SMILES,"hERG current change (%, negative = inhibition) at 10uM"
1,COc1cccc(NC(=O)CCN2CCN(C)CC2)c1,-2.53%
2,COC(=O)C1=C(NC(C)=O)CCS1,27%
3,CCOc1cc(C(=O)Nc2cc(OC)cc(OC)c2)ccc1OCC(=O)N1CCOCC1,-14.7%
4,FC(F)Oc1ccc(NC(=S)NCc2ccco2)cc1Cl,-2.04%
5,O=C(O)c1ccc(/C=C2\SC(=Nc3ccccc3)N(c3ccccc3)C2=O)cc1,50.1%
6,Cc1ccc(NC(=O)C(C)OC(=O)c2ccc(Cl)nc2)cc1S(=O)(=O)N1CCOCC1 (centres unmarked),-34.7%
7,CC(C)(C)c1ccccc1OCCCCCNCCO,-18.5%
8,O=C(O)C(=O)O.O=[N+]([O-])c1ccc(CNCCc2ccccc2)cc1,-44.4%
9,CN(C(=O)CSc1ncnc2sccc12)C1CCCCC1,-17.4%
10,CC(C)(C)OC(=O)N1CCN(C(=O)c2ncn(Cc3ccccc3)c2C(=O)N2CCN(C(=O)OC(C)(C)C)CC2)CC1,6.2%
11,COc1cc(/C=N/NC(=O)c2cccc(C(=O)N/N=C/c3ccc(O)c(OC)c3)n2)ccc1O,20.9%
12,COc1cc(/C=N/NC(=O)c2ccncc2)ccc1OC(=O)c1cc(OC)c(OC)c(OC)c1,1.56%
13,O=C(N/N=C\c1cc(Br)cs1)c1ccncc1,-6.73%
14,COc1ccc(-n2c(Cc3cccn3C)nnc2SCC(=O)Nc2ccc(C)cc2)cc1,-26.4%
15,O=[N+]([O-])c1ccc(-c2nc(NCc3cccnc3)c3ccccc3n2)cc1,25.4%
16,Cc1cc(=O)n2nc(N3CCC(C(=O)NCc4ccccc4F)CC3)sc2n1,-6.89%
17,Cc1nn(C(C)C(=O)O)c(=O)c2ccccc12 (centres unmarked),26.3%
18,CCOC(=O)c1c(NC(=O)CSc2ccccc2C(=O)O)sc(C)c1C,13.3%
19,O=C(CN1CCCc2ccccc21)Nc1cc(S(=O)(=O)N2CCCC2)ccc1Cl,-22.8%
20,Cn1cc([N+](=O)[O-])c(C(=O)n2cccn2)n1,10.4%
